No constants are given. Whether binding was seen depends on the method and setting. For part of these data: Binding seen in cells or lysates may run through a third protein. Some results given as binding are weak or reduced against the parent protein; the word gives no strength. For part of these data: Where a sequence is shown, tags or fusion partners need not be part of it.
B1: NOB1, HA-tagged, in HEK293T (protein, UniProt Q9ULX3 1-412)
chain: MAPVEHVVADAGAFLRHAALQDIGKNIYTIREVVTEIRDKATRRRLAVLPYELRFKEPLPEYVRLVTEFSKKTGDYPSLSATDIQVLALTYQLEAEFVGVSHLKQEPQKVKVSSSIQHPETPLHISGFHLPYKPKPPQETEKGHSACEPENLEFSSFMFWRNPLPNIDHELQELLIDRGEDVPSEEEEEEENGFEDRKDDSDDDGGGWITPSNIKQIQQELEQCDVPEDVRVGCLTTDFAMQNVLLQMGLHVLAVNGMLIREARSYILRCHGCFKTTSDMSRVFCSHCGNKTLKKVSVTVSDDGTLHMHFSRNPKVLNPRGLRYSLPTPKGGKYAINPHLTEDQRFPQLRLSQKARQKTNVFAPDYIAGVSPFVENDISSRSATLQVRDSTLGAGRRRLNPNASRKKFVKKR
B2: PTS, HA-tagged, in HEK293T (protein, UniProt Q03393 1-145)
chain: MSTEGGGRRCQAQVSRRISFSASHRLYSKFLSDEENLKLFGKCNNPNGHGHNYKVVVTVHGEIDPATGMVMNLADLKKYMEEAIMQPLDHKNLDMDVPYFADVVSTTENVAVYIWDNLQKVLPVGVLYKVKVYETDNNIVVYKGE
B3: CASP6, HA-tagged, in HEK293T (protein, UniProt P55212 1-293)
chain: MSSASGLRRGHPAGGEENMTETDAFYKREMFDPAEKYKMDHRRRGIALIFNHERFFWHLTLPERRGTCADRDNLTRRFSDLGFEVKCFNDLKAEELLLKIHEVSTVSHADADCFVCVFLSHGEGNHIYAYDAKIEIQTLTGLFKGDKCHSLVGKPKIFIIQACRGNQHDVPVIPLDVVDNQTEKLDTNITEVDAASVYTLPAGADFLMCYSVAEGYYSHRETVNGSWYIQDLCEMLGKYGSSLEFTELLTLVNRKVSQRRVDFCKDPSAIGKKQVPCFASMLTKKLHFFPKSN

Protein sequences, listed by entry. Tags and fused reporters are not part of them. Lines headed by an entry give the natural chain unless they say otherwise; changes in a name come on top. Chains listed by the source or under a name are the forms on record and can include a tag or linker.
GST-HMGA1b (P17096, form named): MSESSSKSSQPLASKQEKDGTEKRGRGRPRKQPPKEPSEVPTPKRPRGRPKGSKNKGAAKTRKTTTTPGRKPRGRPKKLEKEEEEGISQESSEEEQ
UniProt Q13885: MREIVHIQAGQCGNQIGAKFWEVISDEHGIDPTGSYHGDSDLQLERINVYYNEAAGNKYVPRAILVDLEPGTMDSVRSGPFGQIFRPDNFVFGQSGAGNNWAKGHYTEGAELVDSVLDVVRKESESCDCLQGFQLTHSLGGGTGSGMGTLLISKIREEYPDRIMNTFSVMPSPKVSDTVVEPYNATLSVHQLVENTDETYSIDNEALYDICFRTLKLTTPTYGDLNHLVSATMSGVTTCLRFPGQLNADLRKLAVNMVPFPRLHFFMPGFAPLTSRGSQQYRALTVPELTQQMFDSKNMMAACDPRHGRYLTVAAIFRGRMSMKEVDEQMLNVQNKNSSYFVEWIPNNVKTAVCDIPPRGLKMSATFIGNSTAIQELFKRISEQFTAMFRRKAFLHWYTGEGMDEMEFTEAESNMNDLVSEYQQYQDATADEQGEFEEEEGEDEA
UniProt Q9UNS2: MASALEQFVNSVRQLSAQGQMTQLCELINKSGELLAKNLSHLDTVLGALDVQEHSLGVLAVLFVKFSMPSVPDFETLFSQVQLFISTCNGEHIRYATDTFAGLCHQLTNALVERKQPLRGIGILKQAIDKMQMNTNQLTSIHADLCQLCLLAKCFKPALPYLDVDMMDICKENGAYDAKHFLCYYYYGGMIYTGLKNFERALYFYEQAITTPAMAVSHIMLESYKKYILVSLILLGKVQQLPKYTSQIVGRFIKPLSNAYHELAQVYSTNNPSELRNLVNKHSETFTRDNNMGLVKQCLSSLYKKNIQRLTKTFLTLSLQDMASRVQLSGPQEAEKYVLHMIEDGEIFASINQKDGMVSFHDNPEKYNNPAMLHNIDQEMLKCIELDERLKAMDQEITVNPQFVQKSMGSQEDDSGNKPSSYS
UniProt P02792: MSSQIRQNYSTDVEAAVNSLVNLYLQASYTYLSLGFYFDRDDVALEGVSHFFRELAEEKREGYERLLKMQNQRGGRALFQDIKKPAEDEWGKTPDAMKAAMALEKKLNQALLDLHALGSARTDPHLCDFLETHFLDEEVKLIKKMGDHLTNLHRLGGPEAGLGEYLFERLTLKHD
UniProt Q9Y483: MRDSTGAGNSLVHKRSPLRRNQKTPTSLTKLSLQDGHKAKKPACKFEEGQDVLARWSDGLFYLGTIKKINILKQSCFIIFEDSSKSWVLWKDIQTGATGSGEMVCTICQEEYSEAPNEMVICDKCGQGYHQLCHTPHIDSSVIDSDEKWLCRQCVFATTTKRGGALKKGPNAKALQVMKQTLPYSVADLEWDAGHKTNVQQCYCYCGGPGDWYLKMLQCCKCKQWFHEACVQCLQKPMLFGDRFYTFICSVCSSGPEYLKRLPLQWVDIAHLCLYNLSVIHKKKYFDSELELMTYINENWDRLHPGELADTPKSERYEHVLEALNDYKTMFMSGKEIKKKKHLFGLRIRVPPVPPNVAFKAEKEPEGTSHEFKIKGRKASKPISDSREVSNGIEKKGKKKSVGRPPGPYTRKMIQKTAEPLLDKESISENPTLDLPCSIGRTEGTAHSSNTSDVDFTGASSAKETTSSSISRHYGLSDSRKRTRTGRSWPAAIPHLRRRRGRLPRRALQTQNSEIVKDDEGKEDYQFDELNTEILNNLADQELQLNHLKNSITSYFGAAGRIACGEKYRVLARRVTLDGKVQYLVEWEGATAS

What was measured:
MBP-PRMT6 (human) = MBP-PRMT6 (human) (UniProt Q96LA8); assay: co-affinity purification; MBP-PRMT6 and HA-tagged partner co-transfected in HEK293T; native lysis; amylose resin; western blot with anti-HA
GST-PRMT6 (human) = GST-PRMT6 (human) (UniProt Q96LA8); assay: pull-down; GST fusion protein as bait; 35S-methionine labelled in vitro translated HA-tagged partner; fluorography; input 20%; only the target purified
GST-HMGA1b = GST-HMGA1b (UniProt P17096); assay: as above

| Molecule | binding (MBP-PRMT6 (human)) | binding (GST-PRMT6 (human)) | binding (GST-HMGA1b) |
| --- | --- | --- | --- |
| TUBB2A, HA-tagged, in HEK293T (from UniProt Q13885 1-445) | binds | – | – |
| COPS3, HA-tagged, in vitro translated (from UniProt Q9UNS2 1-423) | – | binds | binds |
| FtL, HA-tagged, in vitro translated (from UniProt P02792 1-175) | – | binds | no binding |
| HSJ-2, HA-tagged, in HEK293T (from UniProt P31689 1-397) | binds | – | – |
| MTF2, HA-tagged, in HEK293T (from UniProt Q9Y483 1-593) | binds | – | – |
| TUBB2A, HA-tagged, in vitro translated (from UniProt Q13885 1-445) | – | binds | no binding |
| B1 | binds | – | – |
| B2 | binds | – | – |
| B3 | binds | – | – |

Reference: paper PMC3542376
